# No constants are given. Whether binding was seen depends on the method and setting. In cells and extracts the contact can be indirect. Some entries that bind do so weakly or less than the wild type. For some of these results: Where a sequence is shown, tags or fusion partners need not be part of it.
# By UniProt entry, the sequences of proteins in these tests, tags left out.
# UniProt Q9SUP6: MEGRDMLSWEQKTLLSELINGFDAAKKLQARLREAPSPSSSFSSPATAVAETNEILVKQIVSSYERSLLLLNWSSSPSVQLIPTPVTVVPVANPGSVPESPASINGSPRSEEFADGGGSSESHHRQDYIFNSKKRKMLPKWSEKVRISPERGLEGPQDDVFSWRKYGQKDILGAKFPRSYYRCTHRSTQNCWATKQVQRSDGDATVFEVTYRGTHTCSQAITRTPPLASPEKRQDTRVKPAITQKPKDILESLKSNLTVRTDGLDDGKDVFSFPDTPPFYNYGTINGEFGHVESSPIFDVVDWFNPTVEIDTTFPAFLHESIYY
# T1: ARF3-cYFP (Arabidopsis) (UniProt O23661)
# T1 sequence: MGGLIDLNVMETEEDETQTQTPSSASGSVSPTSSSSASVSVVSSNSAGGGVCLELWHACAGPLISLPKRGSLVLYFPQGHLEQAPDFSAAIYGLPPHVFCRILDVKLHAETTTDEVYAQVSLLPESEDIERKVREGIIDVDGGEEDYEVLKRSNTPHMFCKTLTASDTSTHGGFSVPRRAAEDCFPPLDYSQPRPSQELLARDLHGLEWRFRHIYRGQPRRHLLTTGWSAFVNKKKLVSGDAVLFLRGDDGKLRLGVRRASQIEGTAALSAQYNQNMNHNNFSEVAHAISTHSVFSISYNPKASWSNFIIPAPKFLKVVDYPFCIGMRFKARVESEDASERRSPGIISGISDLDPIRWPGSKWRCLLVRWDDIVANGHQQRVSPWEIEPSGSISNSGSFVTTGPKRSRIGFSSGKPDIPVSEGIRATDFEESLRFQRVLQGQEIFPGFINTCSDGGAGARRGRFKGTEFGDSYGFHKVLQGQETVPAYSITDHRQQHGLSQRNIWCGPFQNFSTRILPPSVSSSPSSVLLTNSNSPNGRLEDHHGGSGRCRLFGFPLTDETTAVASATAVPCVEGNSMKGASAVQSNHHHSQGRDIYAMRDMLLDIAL
# T2: ARF5Δ722-cYFP (Arabidopsis) (UniProt P93024)
# T2 sequence: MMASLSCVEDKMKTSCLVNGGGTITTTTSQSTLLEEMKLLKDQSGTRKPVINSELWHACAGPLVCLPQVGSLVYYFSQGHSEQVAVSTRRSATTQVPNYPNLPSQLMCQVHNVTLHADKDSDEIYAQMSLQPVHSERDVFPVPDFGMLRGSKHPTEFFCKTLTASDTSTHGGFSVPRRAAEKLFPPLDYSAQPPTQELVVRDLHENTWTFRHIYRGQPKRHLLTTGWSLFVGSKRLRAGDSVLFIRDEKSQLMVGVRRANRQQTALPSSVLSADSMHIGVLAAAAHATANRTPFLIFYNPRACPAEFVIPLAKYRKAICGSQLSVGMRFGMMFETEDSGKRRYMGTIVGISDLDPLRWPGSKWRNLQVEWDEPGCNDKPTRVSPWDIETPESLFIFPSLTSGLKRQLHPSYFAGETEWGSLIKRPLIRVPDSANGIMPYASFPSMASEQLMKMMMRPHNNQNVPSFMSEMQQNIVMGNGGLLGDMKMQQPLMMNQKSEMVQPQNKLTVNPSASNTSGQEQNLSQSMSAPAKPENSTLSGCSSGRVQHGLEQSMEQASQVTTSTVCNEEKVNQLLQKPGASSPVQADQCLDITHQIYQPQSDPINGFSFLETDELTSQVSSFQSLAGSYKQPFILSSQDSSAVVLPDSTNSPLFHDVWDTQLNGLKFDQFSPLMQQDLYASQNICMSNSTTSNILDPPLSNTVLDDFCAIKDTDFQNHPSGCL
# T3: WRKY40 (Arabidopsis) (UniProt Q9SAH7)
# T3 sequence: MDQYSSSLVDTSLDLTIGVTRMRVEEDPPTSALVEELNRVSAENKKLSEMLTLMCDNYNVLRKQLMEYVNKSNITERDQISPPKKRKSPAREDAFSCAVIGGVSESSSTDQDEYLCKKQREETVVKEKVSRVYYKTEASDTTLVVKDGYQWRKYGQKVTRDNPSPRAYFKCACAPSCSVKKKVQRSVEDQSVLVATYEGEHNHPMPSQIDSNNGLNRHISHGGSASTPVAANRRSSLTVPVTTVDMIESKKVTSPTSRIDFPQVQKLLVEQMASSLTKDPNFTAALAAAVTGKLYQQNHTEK
# T4: ARF5 (Arabidopsis) (UniProt P93024)
# T4 sequence: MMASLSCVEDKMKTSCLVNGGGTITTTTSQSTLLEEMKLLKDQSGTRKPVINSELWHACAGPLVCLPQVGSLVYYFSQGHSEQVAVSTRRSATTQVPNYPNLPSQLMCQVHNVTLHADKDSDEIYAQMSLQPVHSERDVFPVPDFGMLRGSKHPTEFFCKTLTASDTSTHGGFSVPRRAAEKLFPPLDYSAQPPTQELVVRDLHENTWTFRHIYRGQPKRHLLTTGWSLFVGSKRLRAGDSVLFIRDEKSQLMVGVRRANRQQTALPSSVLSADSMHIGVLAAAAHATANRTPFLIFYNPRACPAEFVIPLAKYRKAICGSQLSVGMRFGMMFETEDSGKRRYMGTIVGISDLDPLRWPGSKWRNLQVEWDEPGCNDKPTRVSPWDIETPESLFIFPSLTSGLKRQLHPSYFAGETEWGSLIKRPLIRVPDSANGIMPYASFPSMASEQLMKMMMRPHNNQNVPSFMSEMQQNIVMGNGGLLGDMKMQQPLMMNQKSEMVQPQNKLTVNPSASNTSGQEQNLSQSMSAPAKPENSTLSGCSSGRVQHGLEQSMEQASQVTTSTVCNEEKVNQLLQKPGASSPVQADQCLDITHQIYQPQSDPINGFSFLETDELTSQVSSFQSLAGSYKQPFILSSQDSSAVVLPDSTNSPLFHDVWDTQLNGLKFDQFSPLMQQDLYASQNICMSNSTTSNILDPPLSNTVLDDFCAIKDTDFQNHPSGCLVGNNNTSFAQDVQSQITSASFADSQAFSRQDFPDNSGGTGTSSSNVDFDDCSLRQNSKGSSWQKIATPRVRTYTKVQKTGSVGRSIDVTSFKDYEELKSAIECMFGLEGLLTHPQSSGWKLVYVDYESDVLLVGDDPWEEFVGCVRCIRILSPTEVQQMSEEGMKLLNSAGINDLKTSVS
# How the values were obtained:
# Test in all cases: split reporter; BiFC: cYFP and nYFP fusion constructs (20 μg each) co-transfected into Arabidopsis mesophyll protoplasts (PEG-calcium), 16–18 h in the dark at room temperature, confocal laser scanning microscopy; signal restricted to the nucleus
# ARF3-cYFP (Arabidopsis) = target: T1, ARF3-cYFP (Arabidopsis)
# [1] = target: T2, ARF5Δ722-cYFP (Arabidopsis)
# WRKY40 (Arabidopsis) = target: T3, WRKY40 (Arabidopsis)
# ARF5 (Arabidopsis) = target: T4, ARF5 (Arabidopsis)
# [2] = target: WRKY53-cYFP (Arabidopsis) (UniProt Q9SUP6)
binding (ARF3-cYFP (Arabidopsis)),binding [1],binding (WRKY40 (Arabidopsis)),binding (ARF5 (Arabidopsis)),binding [2],Binder
no binding,no binding,binds,binds,no binding,"ARF5 (protein, UniProt P93024 1-902) MMASLSCVEDKMKTSCLVNGGGTITTTTSQSTLLEEMKLLKDQSGTRKPVINSELWHACAGPLVCLPQVGSLVYYFSQGHSEQVAVSTRRSATTQVPNYPNLPSQLMCQVHNVTLHADKDSDEIYAQMSLQPVHSERDVFPVPDFGMLRGSKHPTEFFCKTLTASDTSTHGGFSVPRRAAEKLFPPLDYSAQPPTQELVVRDLHENTWTFRHIYRGQPKRHLLTTGWSLFVGSKRLRAGDSVLFIRDEKSQLMVGVRRANRQQTALPSSVLSADSMHIGVLAAAAHATANRTPFLIFYNPRACPAEFVIPLAKYRKAICGSQLSVGMRFGMMFETEDSGKRRYMGTIVGISDLDPLRWPGSKWRNLQVEWDEPGCNDKPTRVSPWDIETPESLFIFPSLTSGLKRQLHPSYFAGETEWGSLIKRPLIRVPDSANGIMPYASFPSMASEQLMKMMMRPHNNQNVPSFMSEMQQNIVMGNGGLLGDMKMQQPLMMNQKSEMVQPQNKLTVNPSASNTSGQEQNLSQSMSAPAKPENSTLSGCSSGRVQHGLEQSMEQASQVTTSTVCNEEKVNQLLQKPGASSPVQADQCLDITHQIYQPQSDPINGFSFLETDELTSQVSSFQSLAGSYKQPFILSSQDSSAVVLPDSTNSPLFHDVWDTQLNGLKFDQFSPLMQQDLYASQNICMSNSTTSNILDPPLSNTVLDDFCAIKDTDFQNHPSGCLVGNNNTSFAQDVQSQITSASFADSQAFSRQDFPDNSGGTGTSSSNVDFDDCSLRQNSKGSSWQKIATPRVRTYTKVQKTGSVGRSIDVTSFKDYEELKSAIECMFGLEGLLTHPQSSGWKLVYVDYESDVLLVGDDPWEEFVGCVRCIRILSPTEVQQMSEEGMKLLNSAGINDLKTSVS"
no binding,no binding,binds,binds,no binding,"WRKY40 (protein, UniProt Q9SAH7 1-302) MDQYSSSLVDTSLDLTIGVTRMRVEEDPPTSALVEELNRVSAENKKLSEMLTLMCDNYNVLRKQLMEYVNKSNITERDQISPPKKRKSPAREDAFSCAVIGGVSESSSTDQDEYLCKKQREETVVKEKVSRVYYKTEASDTTLVVKDGYQWRKYGQKVTRDNPSPRAYFKCACAPSCSVKKKVQRSVEDQSVLVATYEGEHNHPMPSQIDSNNGLNRHISHGGSASTPVAANRRSSLTVPVTTVDMIESKKVTSPTSRIDFPQVQKLLVEQMASSLTKDPNFTAALAAAVTGKLYQQNHTEK"
